Measured values taken from publication PMC4336329 (PLoS ONE, 2015).
The whole screen tested about 310,000 compounds, of which about 14,000 (4.5%) showed an effect of 50% or more. The effect is printed as a negative number. This is one part of the list.

Target: human ether-à-go-go-related gene (hERG) potassium channel (human, UniProt Q12809)
Test: primary screen, population patch clamp on CHO cells stably expressing hERG
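Also: peak tail current of the secondary pulse compared with the same well before compound.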

Sequence of human ether-à-go-go-related gene (hERG) potassium channel (Q12809 whole entry, looked up): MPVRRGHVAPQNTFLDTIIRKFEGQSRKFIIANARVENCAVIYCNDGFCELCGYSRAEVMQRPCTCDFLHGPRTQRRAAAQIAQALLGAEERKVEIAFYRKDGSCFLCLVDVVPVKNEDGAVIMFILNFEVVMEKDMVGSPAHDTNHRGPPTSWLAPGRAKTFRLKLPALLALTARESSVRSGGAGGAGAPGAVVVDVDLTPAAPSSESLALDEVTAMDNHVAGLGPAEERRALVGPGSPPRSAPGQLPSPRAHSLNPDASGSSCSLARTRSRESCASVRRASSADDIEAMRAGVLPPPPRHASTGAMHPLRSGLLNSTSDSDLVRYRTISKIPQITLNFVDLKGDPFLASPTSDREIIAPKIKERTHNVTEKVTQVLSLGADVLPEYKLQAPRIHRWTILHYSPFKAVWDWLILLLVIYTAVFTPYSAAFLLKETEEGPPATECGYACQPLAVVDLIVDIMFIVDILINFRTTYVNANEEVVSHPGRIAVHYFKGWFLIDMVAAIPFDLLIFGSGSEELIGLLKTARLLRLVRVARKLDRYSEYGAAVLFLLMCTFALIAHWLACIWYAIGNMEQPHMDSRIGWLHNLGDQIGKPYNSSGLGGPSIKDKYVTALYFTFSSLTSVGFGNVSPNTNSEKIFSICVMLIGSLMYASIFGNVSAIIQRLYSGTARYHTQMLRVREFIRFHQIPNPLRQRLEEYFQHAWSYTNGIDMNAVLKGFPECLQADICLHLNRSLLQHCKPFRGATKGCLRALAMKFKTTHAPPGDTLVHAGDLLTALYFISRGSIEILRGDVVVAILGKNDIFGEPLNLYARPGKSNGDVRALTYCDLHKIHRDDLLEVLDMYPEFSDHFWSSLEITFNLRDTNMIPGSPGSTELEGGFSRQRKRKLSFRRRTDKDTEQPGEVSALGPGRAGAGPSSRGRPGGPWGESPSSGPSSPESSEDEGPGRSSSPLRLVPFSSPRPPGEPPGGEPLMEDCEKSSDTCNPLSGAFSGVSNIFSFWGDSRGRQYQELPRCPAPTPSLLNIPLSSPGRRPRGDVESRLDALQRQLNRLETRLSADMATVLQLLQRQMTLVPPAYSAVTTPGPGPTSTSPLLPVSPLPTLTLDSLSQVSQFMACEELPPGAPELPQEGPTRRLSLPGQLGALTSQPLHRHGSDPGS

| Structure (SMILES) | hERG current change (%, negative = inhibition) at 10uM [%] |
| --- | --- |
| CCOc1ccc(C(C(=O)NC2CCCCC2)N(C(=O)c2ccco2)c2ccc(-n3cnnn3)c(C)c2)cc1 (centres unmarked) | -21.8 |
| CC1CCCN(S(=O)(=O)CCNC(=O)c2ccc3c(c2)OCO3)C1 (centres unmarked) | 3.98 |
| CCOC(=O)C1CCN(C(=O)c2ccc3c(=O)n4c(nc3c2)CCCCC4)CC1 | 0.673 |
| Cc1cccc(Nc2cc(C)nc3ccccc23)c1.Cl | -65.4 |
| S=C(Nc1ccccc1Cl)N(CCN1CCCCC1)Cc1ccco1 | -42.3 |
| O=C(c1cc([N+](=O)[O-])cc([N+](=O)[O-])c1)N1CCN(Cc2ccc3c(c2)OCO3)CC1 | -58.2 |
| Cc1[nH]c(C)c(S(=O)(=O)Nc2cccc(Cl)c2C)c1C(=O)N1CCCC1 | -7.43 |
| COC(=O)CC(NC(=O)c1ccc(C)cc1)c1ccccc1 (centres unmarked) | 12 |
| COC(=O)c1c(C)[nH]c(-c2csc(N)n2)c1C | 9.99 |
| COc1ccccc1CNC(=O)CSC1=NCCS1 | 6.46 |
| Br.Cc1ccc(Nc2nc(-c3sc(N)nc3C)cs2)cc1 | -1.9 |
| COc1ccc(N2C(=O)CSC23C(=O)N2c4c(cccc43)C(C)=CC2(C)C)cc1 (centres unmarked) | 3.11 |
| CN(C)CCCNS(=O)(=O)c1ccc(-n2nnc3ccccc32)c([N+](=O)[O-])c1 | -2.27 |
| COCCCn1c(=S)[nH]c2sc3c(c2c1=O)CCCC3 | 8.85 |
| CCN(CC(=O)NCc1ccccn1)S(=O)(=O)c1ccc(OC)cc1 | 12.4 |
| COc1ccc(/C=C/C(=O)OCC(=O)Nc2ccc(C)cc2)cc1S(=O)(=O)N1CCOCC1 | -28.6 |
| COc1ccc(S(=O)(=O)NCC2CCCN(C(=O)CNC(C)=O)C2)cc1 (centres unmarked) | 24.4 |
| Cc1ccc(N2CCN(C(=O)c3ccccc3)CC2)c(C)c1 | -18.4 |
| CN(CC(=O)Nc1ccccc1Cl)C(=O)CN1C(=O)C2CCCCC2C1=O (centres unmarked) | -4.54 |

| Structure (SMILES) | hERG current change (%, negative = inhibition) at 10uM [%] |
| --- | --- |
| CCN(CC)C(=O)COn1c(SCC(=O)N(CC)CC)nc2ccccc2c1=O | -3.82 |
| CCCc1nnc(SCC(=O)Nc2ccc(NC(C)=O)cc2)n1-n1cccc1 | -11 |
| CC(C)NC(=O)c1cccc(Cn2cc(Cl)cn2)c1 | 3.17 |
| Cn1cccc1CNCCc1ccccc1F | -13.6 |
| S=c1[nH]nc(CCc2nc3ccccc3[nH]2)n1-c1cccc(Cl)c1 | 35 |
| Cc1nn(C)c(C(=O)NNC(=S)NC2CCCCC2)c1Br | 3.97 |
| CCC(=NCC1CCCO1)c1c(O)[nH]c(=O)[nH]c1=O (centres unmarked) | -5.49 |
| COc1ccc(-c2csc(NC(=S)NC(=O)c3ccco3)n2)cc1 | 16.1 |
| CS(=O)(=O)N1CCC(C(=O)NCc2ccccc2)CC1 | 15.9 |
| CC1(C)Cc2nc3oc4c(=O)n(CC(=O)Nc5ccccc5)cnc4c3cc2CO1 | 5.24 |
| COc1ccc(NC(=O)CC2Oc3ccc(C)cc3NC2=O)cc1 (centres unmarked) | 11.3 |
| CCNC(=S)NNc1nc(N2CCOCC2)nc(N2CCOCC2)n1 | 13.8 |
| Cn1c(=O)c2c(nc(CN3CCN(C(=O)c4ccco4)CC3)n2Cc2ccccc2)n(C)c1=O | -40.7 |
| N#CC1=C(N)SC(N)=C(C#N)C1C1CC=CCC1 (centres unmarked) | -2.71 |
| O=C(COc1cccc(NC(=O)c2cccc([N+](=O)[O-])c2)c1)c1ccc(Br)cc1 | 6.94 |
| Cc1cc(S(=O)(=O)N2CCCC(C)C2)ccc1-n1cnnn1 (centres unmarked) | 5.72 |
| CC1(C)CC(=O)C(C=NCCN2CCN(C(=O)c3ccc(Br)cc3)CC2)=C(O)C1 | -48.2 |
| Cc1cccc(Nc2ncnc(N)c2[N+](=O)[O-])n1 | 17.8 |
| O=[N+]([O-])c1ccc(S(=O)(=O)c2ccccc2)nc1 | 15.7 |

| Structure (SMILES) | hERG current change (%, negative = inhibition) at 10uM [%] |
| --- | --- |
| CC1CCCCN1C(=O)c1cccc(NC2=C(Cl)C(=O)N(Cc3ccccc3)C2=O)c1 (centres unmarked) | -15.8 |
| Cc1ccc(CN2C(=O)c3ccccc3C2C(=O)NCC2CCCO2)cc1 (centres unmarked) | -16.4 |
| CC(C)(C)c1ccc(COC(=O)Nc2ccc(F)cc2)cc1 | 11.8 |
| Cc1ccc(C)c(S(=O)(=O)NNC(=O)Nc2ccccc2Cl)c1 | 5.51 |
| Cc1cc2oc(=O)cc(CNc3ccccc3F)c2cc1O | 14 |
| NC(=O)COc1ccc(/C=C2\C(=O)ON=C2c2ccccc2)cc1 | 14 |
| CC(C)(C)C(=O)COC(=O)C1CC(=O)N(c2ccccc2)C1 (centres unmarked) | 15.9 |
| COc1ccc(NC(=O)c2cc(-c3cc(C)cc(C)c3O)n[nH]2)cc1Cl | -4.52 |
| CCOc1cc(-c2nc(C)c(C(C)=O)n2O)ccc1OCC(=O)Nc1cccc(C)c1 | -23.5 |
| CCOC(=O)C1=NN(c2ccccc2)C(c2ccccc2)CC1=O (centres unmarked) | 5.31 |
| CC1Sc2ccc(S(=O)(=O)CCC(=O)NCc3ccc(Cl)cc3)cc2NC1=O (centres unmarked) | -28.7 |
| CN(C(=O)COC(=O)C12CC3CC(CC(C3)C1)C2)c1c(N)n(Cc2ccccc2)c(=O)[nH]c1=O | 7.54 |
| Cc1cc(C)n2nc(SCC(=O)N3CCOCC3)nc2n1 | 12 |
| CCOC(=O)C(C(=O)OCC)N(C#N)c1nc(N(C)C)nc(N(C)C)n1 | 4.35 |
| Cc1nc(-c2ccccc2)sc1C(=O)/C=C/N(C)C | -8.92 |
| COc1cc(C)nc(OCCNC(=O)COc2ccc(Cl)cc2C)n1 | -40.5 |
| CCN1C(=O)[C@H]2[C@@H](c3ccc(Cl)cc3)N3C(=O)CN(CCOC)C(=O)[C@@]3(Cc3ccccc3)[C@H]2C1=O | -4.75 |
| CCC1(c2ccc(F)cc2)NC(=O)N(CC(=O)NCc2ccccc2Cl)C1=O (centres unmarked) | -10.3 |
